This is one part of the list. Many values rest on one well or one pass, so single values are uncertain.
Experiments:
Experiment in all cases: cell count relative to DMSO control; melanoma cells; higher = more viable cells
Settings in all cases: library dose: low library concentration; 72 h
WM115 = test system: WM115
WM1716 = test system: WM1716
WM1745 = test system: WM1745
WM3526 = test system: WM3526
WM3619 = test system: WM3619
WM451Lu = test system: WM451Lu
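Further: cell number obtained by counting DAPI-stained nuclei in high-throughput microscope images with image analysis software, screen run in 1,536-well plates.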

Cn1c(=O)n(-c2ccc(C(C)(C)C#N)cc2)c2c3cc(-c4cnc5ccccc5c4)ccc3ncc21 + Clc1ccc(Nc2nnc(Cc3ccncc3)c3ccccc23)cc1 [vatalanib] (first compound 0.004 µM, partner dose 2 µM)
cell count (WM115): 90.4% | cell count (WM1716): 86.6% | cell count (WM1745): 73% | cell count (WM3526): 97.1% | cell count (WM3619): 72.2% | cell count (WM451Lu): 89.9%

COc1ccc(C2=N[C@@H](c3ccc(Cl)cc3)[C@@H](c3ccc(Cl)cc3)N2C(=O)N2CCNC(=O)C2)c(OC(C)C)c1 [Nutlin-3] + Cn1c(=O)n(-c2ccc(C(C)(C)C#N)cc2)c2c3cc(-c4cnc5ccccc5c4)ccc3ncc21 [NVP-BEZ235] (first compound 0.1 µM, partner dose 0.004 µM)
cell count (WM115): 78.6% | cell count (WM1716): 83.2% | cell count (WM1745): 104% | cell count (WM3526): 76.2% | cell count (WM3619): 97.7% | cell count (WM451Lu): 102%

Cc1cn(-c2cc(NC(=O)c3ccc(C)c(Nc4nccc(-c5cccnc5)n4)c3)cc(C(F)(F)F)c2)cn1 [nilotinib] + Nc1nc(F)nc2c1ncn2[C@@H]1O[C@H](CO)[C@@H](O)[C@@H]1O [fludarabine] (first compound 0.2 µM, partner dose 0.2 µM)
cell count (WM115): 97.4% | cell count (WM1716): 97.1% | cell count (WM1745): 104% | cell count (WM3526): 25.7% | cell count (WM3619): 80.9% | cell count (WM451Lu): 55.2%

Cc1cc(Nc2cc(N3CCN(C)CC3)nc(/C=C/c3ccccc3)n2)n[nH]1 + Cn1cc(/C=C2\C(=O)Nc3cccnc32)c2ccccc21 [GW441756] (first compound 0.04 µM, partner dose 0.4 µM)
cell count (WM115): 83.5% | cell count (WM1716): 122% | cell count (WM1745): 84.9% | cell count (WM3526): 106% | cell count (WM3619): 109% | cell count (WM451Lu): 99.7%

Source: the supplement of paper PMC4604168 (melanoma cell lines)
